Test results from paper PMC7819943, “Rice protein-binding microarrays: a tool to detect cis-acting elements near promoter regions in rice”.
Some of the results follow.

Biological target: T1, OsWOX13 (Oryza sativa, UniProt Q5QMM3 1-267)
T1 sequence: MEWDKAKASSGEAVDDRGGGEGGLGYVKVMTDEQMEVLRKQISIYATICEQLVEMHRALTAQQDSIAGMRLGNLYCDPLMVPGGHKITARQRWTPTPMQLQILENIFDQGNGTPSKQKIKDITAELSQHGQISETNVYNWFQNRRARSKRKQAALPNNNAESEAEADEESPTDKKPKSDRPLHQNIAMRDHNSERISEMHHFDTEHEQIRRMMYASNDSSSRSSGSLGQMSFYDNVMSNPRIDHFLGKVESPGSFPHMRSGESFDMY
Assay: protein-binding microarray (RPBM); PBS, 2% BSA, 51.3 ng/ul salmon testes DNA, 50 uM zinc acetate, 200 nM TF, 25 C, 1 h; high values mean tight binding
Details: protein: recombinant; tags: N-terminal polyhistidine and DsRed monomer fusion (pET32a); label: CyDye5-dUTP incorporated in the synthesized complementary strand; 3' TTTTT single-stranded linker to array surface; dsDNA, one strand shown
Procedure, shortened: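 Binding signal is reported as fluorescence intensity per feature (arbitrary units) from an Axon 4000B scanner. Incubation used 200 nM of each Ni–NTA-purified, N-terminally polyhistidine- and DsRed-fused transcription factor from E. coli BL21-CodonPlus on a double-stranded custom Agilent array for 1 h at 25 °C, with 50 µM zinc acetate in the buffer, followed by washing.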

Sequence | binding signal
TCCTGGATAAACTCATGGTAAATTGACTAATGCTAATGTTCGGAGTCACCTAGTGCAG | 8090 fluorescence intensity (a.u.)
CTGCAAAGAAGATTGGCTGTCCATGGAATCATGGATGATTCGGAGTCACCTAGTGCAG | 5830 fluorescence intensity (a.u.)
AATAAATTTTATAACTCACATATACTATTTATCATGTAGTCGGAGTCACCTAGTGCAG | 11300 fluorescence intensity (a.u.)
CAATCTGACCATCAAATCAAATCAAATCAATGGCAAACACCGGAGTCACCTAGTGCAG | 4790 fluorescence intensity (a.u.)
CCGACAGCTAGTGATTAGGAGGCGGTGGCTAGTGGTGGCGCGGAGTCACCTAGTGCAG | 4380 fluorescence intensity (a.u.)
TCTCAAATTAAGTGTAGCCATGATAATCCGTGTCCAACGTCGGAGTCACCTAGTGCAG | 3160 fluorescence intensity (a.u.)
ACACTCATTCTGCTCTTAATTAATGTGCAAACAGTTTGCTCGGAGTCACCTAGTGCAG | 6830 fluorescence intensity (a.u.)
CAGGTAAACAAATTAGTTTCTCCTCTTAAAAGCTTAATTTCGGAGTCACCTAGTGCAG | 4680 fluorescence intensity (a.u.)
ATGAAATTGTCGGAATGTAACGAAATTTTGTGTTACGTTCCGGAGTCACCTAGTGCAG | 4190 fluorescence intensity (a.u.)
CAAATTGAAAATGCAATCGATCCAACAGGAAGCAACCACCCGGAGTCACCTAGTGCAG | 4000 fluorescence intensity (a.u.)
TAAAACTAACATGTATAGTAGATTGGCTATAAGTTTATCCCGGAGTCACCTAGTGCAG | 6400 fluorescence intensity (a.u.)
CATTGTCATCCTGAGTAGATTGCCAATTATATGGGTTTGGCGGAGTCACCTAGTGCAG | 6170 fluorescence intensity (a.u.)
CCAAGAAATTACTGCTAGCGATTGAACATTTCACGTCAGACGGAGTCACCTAGTGCAG | 4830 fluorescence intensity (a.u.)
AAAACTTAATTGAGAACACAGCTCAATCTAGCTGATAAAACGGAGTCACCTAGTGCAG | 22800 fluorescence intensity (a.u.)
GAAGATAGATGAATTGTCTGCCTTGCTTGCTGAAGCGATGCGGAGTCACCTAGTGCAG | 11600 fluorescence intensity (a.u.)
AGCTAATTGCTACACTTTGACCTGTCATCAATCTTTGGATCGGAGTCACCTAGTGCAG | 29600 fluorescence intensity (a.u.)
AATAATTGTGCTCACAACGTGACAATTAGCAGCCAGTGTTCGGAGTCACCTAGTGCAG | 27700 fluorescence intensity (a.u.)
TCCAACGATTATAAATGATTGTGATGTACAGTGTTGCTTTCGGAGTCACCTAGTGCAG | 13800 fluorescence intensity (a.u.)
TTTAGGATTGAAGTAAACTGTAAACTATATGTCTGACCGCCGGAGTCACCTAGTGCAG | 16600 fluorescence intensity (a.u.)
GTTTGTTATTTAAATTAAGACTTAGCTTGTCAAGTATAGGCGGAGTCACCTAGTGCAG | 6720 fluorescence intensity (a.u.)
CTAGAATGATTTACATTGTGAAACGGAGAAAGTATATTTACGGAGTCACCTAGTGCAG | 7280 fluorescence intensity (a.u.)
TATCAAAATTTTGCGAGTGATTAGTGAACGGTGCAACGCGCGGAGTCACCTAGTGCAG | 16100 fluorescence intensity (a.u.)
TGTTCAATTTGATTAAACTCACCGCTCTGCATAAATCACGCGGAGTCACCTAGTGCAG | 14600 fluorescence intensity (a.u.)
